According to PubChem BioAssay AID588795 (National Center for Advancing Translational Sciences (NCATS), 2011):
About 1,400 (0.36%) of roughly 390,000 compounds were called active. The inconclusive results got no clear call from the source; some entries with a clear call stand among them for comparison. Calls follow the shape of the dose curve; as a rule, active = well fitted inhibition curve with a large enough effect; inconclusive = small, poorly fitted or top-dose-only effect; inactive = no such curve, though single readings can be large or run the other way. Potencies of inconclusive entries are doubtful fits and often do not repeat.

target: Flap endonuclease 1 (Homo sapiens) (UniProt P39748); assay: qHTS Assay for the Inhibitors of Human Flap endonuclease 1 (FEN1).; also: nearly all actives have a fitted effect of over 65% in size; conditions: Recombinant FEN1 flap cleavage, fluorescence, 15 min; series mostly up to 114 µM
UniProt P39748, sequence (P39748 whole entry, looked up): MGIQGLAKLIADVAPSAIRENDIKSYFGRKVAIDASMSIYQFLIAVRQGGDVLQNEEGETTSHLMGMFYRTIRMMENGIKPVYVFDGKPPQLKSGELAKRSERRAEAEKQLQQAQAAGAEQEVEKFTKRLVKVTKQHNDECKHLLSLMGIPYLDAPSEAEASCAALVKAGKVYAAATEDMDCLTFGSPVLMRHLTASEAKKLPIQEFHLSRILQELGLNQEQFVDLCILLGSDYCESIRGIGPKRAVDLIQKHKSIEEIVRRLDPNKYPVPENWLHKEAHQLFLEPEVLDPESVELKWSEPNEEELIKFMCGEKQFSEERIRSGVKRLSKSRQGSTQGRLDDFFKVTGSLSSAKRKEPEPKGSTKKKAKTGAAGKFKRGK
Procedure, shortened: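 Enzyme 10 nM, 15 min RT preincubation with compound; start with substrate 50 nM final; reads at 0 and 15 min; qHTS titration, four-parameter Hill fit.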
Potency is read from the fitted curve at half-maximal effect; tags tell the direction and shape of the fitted curve.

| SMILES | Potency |
| --- | --- |
| CN(C)c1ccc(/C=C/c2cc[n+](C)c3ccc4ccccc4c23)cc1 | inconclusive: 35.5 µM [inhibitor, full curve, poor fit] |
| Cc1ccc(S(=O)(=O)N2CCC(C(=O)NC3CC3)CC2)cc1 | inactive |
| O=C(COc1ccc(/C=N/NC(=O)c2ccc(O)cc2)cc1)Nc1cccc([N+](=O)[O-])c1 | inconclusive: 35.5 µM [inhibitor, full curve, poor fit] |
| Cn1c(=O)c(=O)n(C)c2cc(S(=O)(=O)NCc3ccc(Cl)cc3)ccc21 | inconclusive: 89.1 µM [inhibitor, single point] |
| O=C(COC(=O)[C@@H]1CCCN1C(=O)c1cccs1)Nc1ccc(Br)cc1 | inconclusive: 79.4 µM [inhibitor, partial curve, poor fit] |
| CCN(CC)CCCN(C(=O)c1ccc(OC)cc1)c1nc(-c2ccc(OC)cc2)cs1 | inconclusive: 89.1 µM [inhibitor, partial curve, poor fit] |
| C/C(N)=C(/C#N)C(=O)COC(=O)C1CCC(C(C)(C)C)CC1 (configuration not stated) | inconclusive: 50.1 µM [inhibitor, partial curve, poor fit] |
| O=C1c2ccccc2-c2onc3c(N4CCN(CCO)CC4)cc(N4CCN(C(=O)c5ccco5)CC4)c1c23 | active: 44.7 µM |
| O=C(COC(=O)COc1ccccc1)Nc1ncc([N+](=O)[O-])s1 | inconclusive: 50.1 µM [inhibitor, partial curve, poor fit] |
| CCCCn1c(O)c(N=NC(=O)c2ccco2)c2ccccc21 | inactive |
| CC(C=Cc1ccccc1)=NNS(=O)(=O)c1ccc([N+](=O)[O-])cc1 | inconclusive: 100 µM [inhibitor, single point] |
| COc1ccc2c(c1)CCc1sc(NC(=O)c3ccco3)nc1-2 | inconclusive: 17.8 µM [inhibitor, full curve] |
| CCc1cccc(CC)c1N(COC)C(=O)Cn1c(C)nc2ccccc21 | inactive |
| O=C(CNC(=O)c1ccco1)N=Nc1c(O)n(CCc2ccccc2)c2ccccc12 | inactive |
| Nc1ccc(C(CC(=O)O)n2cccc2)cc1 (configuration not stated) | inactive |
| O=C(CCCn1c(=O)c2cccn2c2ccccc21)Nc1cccc(Cl)c1 | inactive |
| COc1cc(OC)cc(-c2cc3cc4c(cc3cn2)OCO4)c1 | inconclusive: 50.1 µM [inhibitor, partial curve, poor fit] |
| COc1ccc(NC(=O)CC2Nc3cccc4cccc(c34)NC2=O)cc1 (configuration not stated) | inconclusive: 1.58 µM [inhibitor, full curve] |
| Cn1nnnc1SCC(=O)N1CCCc2ccccc21 | inconclusive: 35.5 µM [inhibitor, single point] |
| Cc1ccccc1-n1sc2cc(F)ccc2c1=O | active: 79.4 µM |
| Cc1ccc(C(=O)N2CCCC(N3CCN(c4ccccc4C)CC3)C2)c(=O)[nH]1 (configuration not stated) | inconclusive: 22.4 µM [inhibitor, full curve, poor fit] |

| SMILES | Potency |
| --- | --- |
| Cn1c2ccc(Cl)cc2c2nc3ccccc3nc21 | inconclusive: 11.2 µM [inhibitor, partial curve, poor fit] |
| CCCOc1ccc(-c2cccc(NS(=O)(=O)c3cccs3)c2)nn1 | inactive |
| CC(=O)Nc1ccc(S(=O)(=O)Nc2nc3ccccc3nc2Nc2ccc(C(=O)O)c(O)c2)cc1 | active: 20 µM |
| O=C(COC(=O)c1ccc([N+](=O)[O-])o1)NC1CCCCC1 | inconclusive: 25.1 µM [inhibitor, full curve] |
| CCCC(C(=O)Nc1ccc(S(=O)(=O)N2CCOCC2)cc1)c1ccccc1 (configuration not stated) | inconclusive: 31.6 µM [inhibitor, single point] |
| COc1ccc(N=C2NC(=O)/C(=C\C=C\c3ccco3)S2)cc1 | inconclusive: 50.1 µM [inhibitor, partial curve, poor fit] |
| O=[N+]([O-])c1ccc(N/N=C/c2ccc(O)c(O)c2O)c(S(=O)(=O)N2CCOCC2)c1 | active: 20 µM |
| CC(=O)OCC(=O)C1CCC2C3CC=C4CC(O)CCC4(C)C3CCC12C (configuration not stated) | inactive |
| C#CCOCCOCCOCCNc1nc(N2CCN(C(=O)C(Cc3cc4ccccc4[nH]3)n3cc(C(N)C(C)CC)nn3)CC2)nc(N2CCN(C(=O)C(Cc3cc4ccccc4[nH]3)n3cc(C(N)C(C)CC)nn3)CC2)n1 (configuration not stated) | inconclusive: 79.4 µM [inhibitor, partial curve, poor fit] |
| CCN(Cc1ccccc1)C(=O)c1cc2ccc3cccnc3c2[nH]1 | inconclusive: 4.47 µM [inhibitor, partial curve, poor fit] |
| CN1/C(=C\C(=O)COc2ccc3c(c2)OCO3)C(C)(C)c2ccccc21 | inconclusive: 56.2 µM [inhibitor, partial curve, poor fit] |
| CCn1c(=NC(=O)c2ccc(N3C(=O)CCC3=O)cc2)sc2c(OC)ccc(OC)c21 | inconclusive: 79.4 µM [inhibitor, single point] |
| O=c1cc2oc3cc(O)c(O)cc3c(-c3ccccc3[N+](=O)[O-])c-2cc1O | inconclusive: 1.78 µM [inhibitor, full curve, poor fit] |
| COc1ccccc1Nc1nc(C)nc2c1oc1ccccc12 | inconclusive: 79.4 µM [inhibitor, partial curve, poor fit] |
| O=C(NC1CCCCC1)c1sc(=S)n2c1[nH]c(=O)c1ccccc12 | inconclusive: 89.1 µM [inhibitor, partial curve, poor fit] |
| COc1ccc2c(c1)cc1c(=O)n(CC(=O)NCCc3ccccc3)nc(C)n12 | inactive |
| CCOCCCNc1nc2cc(OC)c(OC)cc2c2nc(-c3ccccc3)nn12 | inconclusive: 89.1 µM [inhibitor, partial curve, poor fit] |
| C/C(COc1ccccc1)=N\NC(=O)c1nnn(-c2nonc2N)c1CSc1ccccc1 | inconclusive: 89.1 µM [inhibitor, partial curve, poor fit] |
| Cc1ccn2c(Nc3ccc4c(c3)OCO4)c(-c3ccccn3)nc2c1 | inconclusive: 63.1 µM [inhibitor, partial curve, poor fit] |
| Fc1ccc2nc3[nH]c4ccccc4c3nc2c1 | inconclusive: 50.1 µM [inhibitor, partial curve, poor fit] |
| COc1ccccc1OCc1ccc(C(=O)n2nc(C)c(Cl)c2C)o1 | inconclusive: 89.1 µM [inhibitor, partial curve, poor fit] |

| SMILES | Potency |
| --- | --- |
| Nc1cc2[nH]c(=O)c3ccccc3c2cc1[N+](=O)[O-] | inconclusive: 89.1 µM [inhibitor, single point] |
| Cc1ccc(-n2nc3c(=O)n(CC(=O)NCc4ccco4)nc(C)c3c2C)cc1 | inactive |
| O=C(Nc1ccccc1OCc1ccccc1)c1ccccc1Br | inconclusive: 1.26 µM [inhibitor, partial curve, poor fit] |
| O=C1/C(=C2\C(=O)N(Cc3ccc(F)cc3)c3ccccc32)SC(=S)N1CCS(=O)(=O)O | inconclusive: 28.2 µM [inhibitor, full curve] |
| COc1cc2c(NC3CCN(C)CC3)nc(N3CCN(C)CC3)nc2cc1OCCCN(C)C | inconclusive: 39.8 µM [inhibitor, partial curve] |
| COc1ccc2c(c1)c(/C=C/c1cc[n+](C)cc1)cn2C | inconclusive: 15.8 µM [inhibitor, full curve, poor fit] |
| Cc1nnc(SCC(=O)NN2C(=O)NC3(CCCCC3)C2=O)s1 | inactive |
| C[C@@H](C(=O)Nc1ccc2ccccc2c1)[C@@H]1C[C@@]1(C)[C@@H](NC(=O)c1cccnc1)c1ccccc1 | inconclusive: 89.1 µM [inhibitor, partial curve, poor fit] |
| O=C(/C(=N/N=C/c1ccc(O)c(O)c1O)c1ccccc1)c1ccccc1 | inconclusive: 89.1 µM [inhibitor, partial curve, poor fit] |
| O=[N+]([O-])c1cccc(-c2nc3ccc([N+](=O)[O-])cc3[nH]2)c1 | inconclusive: 56.2 µM [inhibitor, partial curve, poor fit] |
| COc1cc(-c2cc(C(=O)Nc3ccc(S(N)(=O)=O)cc3)c3ccccc3n2)cc(OC)c1OC | inconclusive: 89.1 µM [inhibitor, partial curve, poor fit] |
| CC(C)c1cccc(C(C)C)c1NC(=O)CNCc1ccccc1F | inactive |
| COc1cc(/C=C2\SC(=O)N(c3ccccc3Cl)C2=O)cc([N+](=O)[O-])c1O | inconclusive: 79.4 µM [inhibitor, single point] |
| CCOc1ccc(NC(=O)CC2Nc3cccc4cccc(c34)NC2=O)cc1 (configuration not stated) | inconclusive: 2.24 µM [inhibitor, full curve] |
| Cc1ccc(C)c(N/C(N)=N/c2nc(C)cc(C)n2)c1 | active: 50.1 µM |
| O=C(c1ccccc1Cl)N1CCCC(c2nc3c(nnn3Cc3ccc(F)cc3F)c(=O)[nH]2)C1 (configuration not stated) | inconclusive: 89.1 µM [inhibitor, partial curve, poor fit] |
| COc1ccccc1[C@H]1C(c2ccccc2)=NN(c2ccccc2)[C@@H]1CO | inconclusive: 70.8 µM [inhibitor, partial curve, poor fit] |
| C=CCc1cccc(CNc2nc3ccccc3n2C)c1O | inconclusive: 79.4 µM [inhibitor, partial curve, poor fit] |
| O=C(Nc1ccc2nc(-c3ccc(Br)o3)[nH]c2c1)c1ccco1 | inconclusive: 50.1 µM [inhibitor, partial curve, poor fit] |
| CC(=O)N1CCc2c(sc(NC(=O)C3CC3)c2-c2nc3ccccc3s2)C1 | inconclusive: 10 µM [inhibitor, full curve, poor fit] |
